“And” between values parts separate entries of the source, which are not always exact repeats. Equal entries are not always repeated. The whole screen tested about 110,000 compounds, of which about 230 (0.21%) showed an effect of 50% or more. Some of the results follow.
Biological target: DPAP1 (Plasmodium falciparum, UniProt Q8IIJ9)
Assay: primary screen, percent inhibition; read by cleavage of a fluorogenic dipeptide substrate; higher = more effect of the substance
Design: species or system P. falciparum D10 trophozoite lysates; single well
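Also: 30 min substrate incubation versus DMSO and 10 µM JCP410 controls.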

Sequence of DPAP1 (Q8IIJ9 whole entry, looked up): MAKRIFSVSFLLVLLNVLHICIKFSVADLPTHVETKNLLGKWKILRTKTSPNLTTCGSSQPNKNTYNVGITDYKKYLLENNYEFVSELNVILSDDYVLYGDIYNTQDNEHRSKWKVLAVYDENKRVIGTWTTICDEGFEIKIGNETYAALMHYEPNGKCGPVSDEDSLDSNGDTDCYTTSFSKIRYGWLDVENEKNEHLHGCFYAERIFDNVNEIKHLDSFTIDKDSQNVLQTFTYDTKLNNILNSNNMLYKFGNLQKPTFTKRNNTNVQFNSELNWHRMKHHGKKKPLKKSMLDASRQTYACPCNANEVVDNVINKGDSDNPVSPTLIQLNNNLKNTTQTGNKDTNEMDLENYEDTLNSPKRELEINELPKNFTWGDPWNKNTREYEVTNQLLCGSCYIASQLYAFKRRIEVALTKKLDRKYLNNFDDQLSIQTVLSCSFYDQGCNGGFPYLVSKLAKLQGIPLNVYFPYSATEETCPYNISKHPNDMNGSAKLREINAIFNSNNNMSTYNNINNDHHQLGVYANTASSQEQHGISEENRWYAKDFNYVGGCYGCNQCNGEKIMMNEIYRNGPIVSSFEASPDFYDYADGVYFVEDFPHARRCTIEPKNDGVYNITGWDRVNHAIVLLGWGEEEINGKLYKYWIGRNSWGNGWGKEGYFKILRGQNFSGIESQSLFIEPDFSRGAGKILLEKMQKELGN

Going from `CCC(C)(O)C#CCN1CCN(C)CC1` (centres unmarked) to `CN1CCN(C2CCC(C(C)(C)C)CC2)CC1` (centres unmarked), the “% Inhibition @ 10 uM” value rises from -7.02% to -1.21%.

Compared with `CC(=O)c1cc(-c2ccc(F)cc2)n(CC(=O)NCCc2ccc(C)cc2)c1C`, `Cc1ccc(/C=C2/NC(=O)N(Cc3ccc(Cl)cc3)C2=O)cc1` is lower in “% Inhibition @ 10 uM” value: 3.07% for the first, -7.09% for the second.

First: Cc1cc(C)nc(SCC(=O)NCC(C)NC(=O)CSc2nc(C)cc(C)n2)n1 (centres unmarked)
Second: Cc1occc1C(=O)Nc1sc(C)c(C)c1C(N)=O
The “% Inhibition @ 10 uM” value of the first is lower: -4.24% for the first, -1.42% for the second.

Going from `COc1ccc(OC)c(/C=C2/SC(=O)N(CC(=O)N3CCOCC3)C2=O)c1` to `COc1ccc(N2CCN(C(=O)CN3C(=O)C4CCCCC4C3=O)CC2)cc1` (centres unmarked), the “% Inhibition @ 10 uM” value falls from 2.33% to -1.17%.

Compared with `CCOC(=O)c1conc1-c1cc(OC)c(OC)c(OC)c1`, `COc1cc(C(=O)Nc2ccc(Cl)c(Cl)c2)cc(OC)c1OC` is higher in “% Inhibition @ 10 uM” value: -3.63% for the first, -0.268% for the second.

First: O=C(c1cccc(F)c1)N1CCN(Cc2ccccc2F)CC1
Second: CCC(=O)c1ccc(OCC(O)CN2CCN(c3ccccc3)CC2)cc1 (centres unmarked)
The “% Inhibition @ 10 uM” value of the first is lower: -4.01% for the first, 14.8% for the second.

First: CCOC(=O)c1c(NC(=O)c2nc3n(n2)C(C(F)F)CC(C)N3)sc2c1CCC(C)C2 (centres unmarked)
Second: CC1CCc2c(C(=O)NCCCN3C(C)CCCC3C)csc2C1 (centres unmarked)
The “% Inhibition @ 10 uM” value of the first is higher: 4.93% for the first, 1.93% for the second.

Going from `Cc1ccc(OCC(=O)Nc2cccnc2Cl)c(C)c1` to `Cc1cc(O)c(NC(=O)COc2ccc(Cl)cc2)cc1C`, the “% Inhibition @ 10 uM” value falls from 2.82% to -2.09%.

First: Cc1noc(C)c1CSc1nc2nncc-2c(O)n1-c1ccccc1
Second: COc1cccc(Cn2c(-c3nonc3N)nc3ccccc32)c1
The “% Inhibition @ 10 uM” value of the first is higher: -3.85% for the first, -5.38% for the second.

First: NC(=O)c1ccccc1NC(=O)c1ccc(-c2ccccc2)cc1
Second: CCCC(=O)Nc1ccc(C(=O)Nc2ccc(Br)cc2C)cc1
The “% Inhibition @ 10 uM” value of the first is lower: 1.13% for the first, 1.17% for the second.

First: CC/N=C1/SC(CC(=O)Nc2ccc(C)cc2Br)C(=O)N1CC (centres unmarked)
Second: COc1cc(/C=C2/NC(=O)N(CC(=O)Nc3ccc(C)cc3)C2=O)cc2c1OCO2
The “% Inhibition @ 10 uM” value of the first is higher: -2.34% for the first, -5.92% for the second.

Going from `CCn1c2ccccc2c2cc(CNCCc3cccc(F)c3)ccc21` to `CCCCn1c(=O)c(C(=O)Nc2cccc(O)c2)c(O)c2ccccc21`, the “% Inhibition @ 10 uM” value rises from -9.04% to -5.81%.

First: CN(C(=O)CSc1nc(O)c2c(n1)CCC2)C1CCCCC1
Second: CC1CCc2nc(NC(=O)c3ccc(S(=O)(=O)N4CCCCC4)cc3)sc2C1 (centres unmarked)
The “% Inhibition @ 10 uM” value of the first is lower: 0.44% for the first, 16.9% for the second.

Going from `CCOc1ccccc1CN1C(=O)c2ccccc2C1C(=O)NCC1CCCO1` (centres unmarked) to `COc1ccc(CCN2C(=O)c3ccccc3C(C(=O)O)C2c2ccccc2O)cc1OC` (centres unmarked), the “% Inhibition @ 10 uM” value rises from -5.2% to -1.19%.

First: c1ccc(Cc2nc3c4cnn(Cc5ccccc5)c4ncn3n2)cc1
Second: CC(C(=O)NC1CCN(Cc2ccccc2)CC1)n1sc2ccccc2c1=O (centres unmarked)
The “% Inhibition @ 10 uM” value of the first is lower: -4.64% for the first, 1% for the second.

Compared with `COCCCNC(=O)c1ccc2c(c1)ncn2-c1cc(OC)ccc1OC`, `COc1ccc(NC(=O)c2ccc(C)c(C)c2)cc1` is lower in “% Inhibition @ 10 uM” value: 2.8% for the first, -6.66% for the second.

Going from `COc1ccc(-c2cc(C3CC3)nc(SC)c2C#N)cc1` to `C=CCSc1nc(-c2ccc(OC)cc2)c(C#N)c(=O)n1CC=C`, the “% Inhibition @ 10 uM” value rises from -3.77% to 0.777%.

First: N#CCNC(=O)[C@H](CSCc1ccccn1)NC(=O)c1ccccc1
Second: CC(C)NS(=O)(=O)c1ccc(OCC(=O)NCc2ccccn2)cc1
The “% Inhibition @ 10 uM” value of the first is higher: 4.33% for the first, -12.5% for the second.

First: COc1cc(C(=O)Nc2ccc(S(=O)(=O)N3CCCCCC3)cc2)cc(OC)c1OC
Second: CC(=O)Nc1ccc(NC(=O)c2sc3nc4c(cc3c2N)CCCCCC4)cc1
The “% Inhibition @ 10 uM” value of the first is higher: 0.727% for the first, -8.02% for the second.

Going from `N#CC1=C(N)N(c2ccccc2)C2=C(C(=O)CCC2)C1c1ccccc1` (centres unmarked) to `O=C1C2=C(c3ccccc3CC23CCCCC3)n2nnnc2C1Cc1ccccc1` (centres unmarked), the “% Inhibition @ 10 uM” value falls from 2.38% to 1.24%.

Going from `CC1(C)CC2(CC(C)(C)N1)OC(=O)N(CCOC13CC4CC(CC(C4)C1)C3)C2(C)O` (centres unmarked) to `O=C(COc1ccccc1C(=O)NCC1CCCO1)NC12CC3CC(CC(C3)C1)C2` (centres unmarked), the “% Inhibition @ 10 uM” value rises from -5.63% to 2.99%.

First: O=C(CN1Cc2ccccc2C1=O)NCCCN1CCCC1
Second: CC1(C)Nc2ccccc2N(CCC(=O)N2CCOCC2)C1=O
The “% Inhibition @ 10 uM” value of the first is lower: -7.03% for the first, 3.93% for the second.

First: COc1cccc(C2C3=C(CC(C)(C)CC3=O)OC3=C2C(=O)CC(C)(C)C3)c1
Second: COc1cccc(/C=C2N=C(/C=C/c3ccc(Cl)cc3)OC/2=O)c1
The “% Inhibition @ 10 uM” value of the first is higher: 1.63% for the first, -1.65% for the second.

Compared with `Cc1nc(O)c2c(n1)OC(N)=C(C#N)C2c1cccc(Cl)c1` (centres unmarked), `COc1ccc(C(=O)Nc2nc(-c3nnn(-c4cccc(Cl)c4C)c3C)ns2)cc1` is higher in “% Inhibition @ 10 uM” value: -5.9% for the first, -4.36% for the second.

Compared with `COc1ccc(C(C)NC(=O)COc2ccccc2Cl)cc1` (centres unmarked), `Cc1ccc(C(=O)Nc2ccc3ccccc3c2)o1` is lower in “% Inhibition @ 10 uM” value: -1.36% for the first, -2.21% for the second.

First: NS(=O)(=O)c1cccc(NS(=O)(=O)c2ccc(O)c([N+](=O)[O-])c2)c1
Second: O=[N+]([O-])c1ccc(Oc2ccc(S(=O)(=O)Nc3ccc(Br)cc3)cc2)cc1
The “% Inhibition @ 10 uM” value of the first is higher: 1.44% for the first, -5.41% for the second.

First: O=C(NCc1ccco1)c1cc(-c2ccc(O)cc2)on1
Second: O=S(=O)(c1ccccc1)c1nnn2c1nc(NCc1ccco1)c1sccc12
The “% Inhibition @ 10 uM” value of the first is lower: 2.01% for the first, 3.28% for the second.

First: O=S(=O)(c1cccc(Cl)c1Cl)N1CCCCC1
Second: CC1CCCCN1S(=O)(=O)c1cccc2c(S(=O)(=O)N3CCCCC3C)cccc12 (centres unmarked)
The “% Inhibition @ 10 uM” value of the first is lower: -2.51% for the first, 3.44% for the second.

Compared with `CC1=NN(C(=O)c2cccc(Br)c2)C(O)(c2ccncc2)C1` (centres unmarked), `Cc1ccc(NC(=O)c2cccnc2Cl)cc1` is lower in “% Inhibition @ 10 uM” value: 4.13% for the first, -2.8% for the second.

Compared with `CC1CN(C2=NC(=O)/C(=C/c3c[nH]nc3-c3ccccc3)S2)CC(C)O1` (centres unmarked), `Cn1c(CO)c(-c2ccccc2)c2cc([N+](=O)[O-])ccc21` is lower in “% Inhibition @ 10 uM” value: 2.67% for the first, 1.41% for the second.

Going from `O=C1CC(c2ccc(Cl)cc2)CC(=O)C1=CNCc1ccc(Cl)c(Cl)c1` (centres unmarked) to `Cc1c2cnn(CC(=O)NC3CCCc4ccccc43)c(=O)c2c(C)n1Cc1ccc(Cl)cc1` (centres unmarked), the “% Inhibition @ 10 uM” value falls from 0.503% to -2.17%.

Compared with `O=C(O)c1nccnc1C(=O)Nc1ccccc1`, `CCOC(=O)Nc1cccc(OC(=O)Nc2ccccc2)c1` is higher in “% Inhibition @ 10 uM” value: -0.415% for the first, 4.89% for the second.

Going from `Cc1ccnc(NC(=O)c2noc3c2COc2ccc(C)cc2-3)c1` to `Cc1ccc(-c2nnc3sc(-c4ccccn4)nn23)cc1`, the “% Inhibition @ 10 uM” value rises from -8.17% to 4.47%.

Going from `COc1cccc(NC2=NS(=O)(=O)c3ccccc32)c1` to `COc1cccc(-c2cc(C(F)(F)F)n3ncc(C(=O)N4CCc5ccccc5C4)c3n2)c1`, the “% Inhibition @ 10 uM” value falls from -1.05% to -2.75%.

First: CC(=O)c1[nH]c(C)c(C(=O)NCc2cccs2)c1C
Second: CCC1CCCCN1C(=O)CSc1nnc(CNC(=O)c2cccs2)o1 (centres unmarked)
The “% Inhibition @ 10 uM” value of the first is higher: 1.1% for the first, -1.58% for the second.

First: Cc1cccc(C)c1NC(=O)C1(NC(=O)CN2C(=O)c3ccccc3C2=O)CCCCC1
Second: O=C(Nc1ccc(O)c(-c2nc3ccccc3[nH]2)c1)C1CCCCC1
The “% Inhibition @ 10 uM” value of the first is higher: -8.3% for the first, -18.6% for the second.

Going from `CC(C)ONC(c1ccccc1)(c1ccccc1)c1ccccc1` to `CC(C)CC(N)C(=O)Nc1ccc2ccccc2c1` (centres unmarked), the “% Inhibition @ 10 uM” value falls from -1.18% to -5.9%.

Compared with `CSCCC(NC(=O)/C(=C/c1ccccc1)NC(=O)c1ccc(Br)o1)C(=O)O` (centres unmarked), `O=C(O)CCC(=O)N1N=C(c2ccccc2)CC1c1cccs1` (centres unmarked) is lower in “% Inhibition @ 10 uM” value: -4.74% for the first, -8.05% for the second.

Compared with `Cn1ncc2c(c1=O)Sc1c(cnn(C)c1=O)S2`, `CCc1nn(C(CC)C(=O)NC2CCCC2)c(=O)c2cc3occc3n12` (centres unmarked) is lower in “% Inhibition @ 10 uM” value: 2.41% for the first, -2% for the second.

First: CCC(CN(C)Cc1ccccc1)NS(=O)(=O)c1csc(C(N)=O)c1 (centres unmarked)
Second: Cc1ccc(NC(=O)CN(Cc2ccccc2)S(C)(=O)=O)cc1C
The “% Inhibition @ 10 uM” value of the first is lower: -2.13% for the first, 0.231% for the second.

Compared with `COc1ccc(/C=C2\CCC/C(=C\c3ccc(OC)cc3)C2=O)cc1`, `COc1ccc(-c2cc(C(F)(F)F)nc(SCC(=O)N3CCN(C)CC3)n2)cc1` is higher in “% Inhibition @ 10 uM” value: -2.77% for the first, -2.75% for the second.

Compared with `COc1ccccc1Oc1nc2c(C)cccn2c(=O)c1/C=C(\C#N)C(=O)N1CCOCC1`, `Cc1ccccc1CN(c1ccc(C(=O)N2CCC(C(N)=O)CC2)cc1)S(C)(=O)=O` is lower in “% Inhibition @ 10 uM” value: 0.315% for the first, -6.66% for the second.

Compared with `CC1=CC2=NC(C(F)(F)F)(C(F)(F)F)N=C(c3ccccc3)N2C=C1`, `CC(=O)Nc1ccc(N2C(=O)CSC23C(=O)Nc2ccccc23)cc1` (centres unmarked) is lower in “% Inhibition @ 10 uM” value: -1.72% for the first, -3.04% for the second.

Going from `Cc1cc(C)cc(NCc2cccnc2)c1` to `CCc1ccc(-c2cn3ccc(C)cc3n2)cc1`, the “% Inhibition @ 10 uM” value rises from -8.04% to 1.27%.

Going from `CCCN1CCC(N2CCCCC2CO)CC1` (centres unmarked) to `O=C1CCC(=O)N1CN1CCC(Cc2ccccc2)CC1`, the “% Inhibition @ 10 uM” value rises from -5.11% to -3.52%.

First: CCOC(=O)C1=C(CN2CCC(C(N)=O)CC2)NC(=O)NC1c1cccc(OC)c1OC (centres unmarked)
Second: CCOc1cc(CN(C)CCN(C)C)ccc1OC
The “% Inhibition @ 10 uM” value of the first is lower: -3.33% for the first, -2.6% for the second.

First: CC(C)CNC(=O)c1cc2nc(C3CC3)cc(C(F)(F)F)n2n1
Second: CCOC(=O)c1cnn2c1NC(c1ccc(C(C)C)cc1)CC2C(F)(F)F (centres unmarked)
The “% Inhibition @ 10 uM” value of the first is lower: -12.1% for the first, 3.35% for the second.

First: COc1ccc(-c2ccc(O)nn2)cc1F
Second: COC(=O)c1c(N)sc2c1CCc1ccccc1-2
The “% Inhibition @ 10 uM” value of the first is lower: 0.635% for the first, 3.94% for the second.

Going from `CCN(CCN(C)C)Cc1ccc(F)cc1F` to `C=CCNc1nc(C)nc2c1sc1nc3c(cc12)COC(C)(C)C3`, the “% Inhibition @ 10 uM” value rises from -4.04% to -1.66%.

First: O=C(O)c1ccc(S(=O)(=O)NC2CCCc3ccccc32)cc1 (centres unmarked)
Second: O=C(NC1CCC(NC(=O)c2ccncc2)CC1)c1ccncc1 (centres unmarked)
The “% Inhibition @ 10 uM” value of the first is higher: 5.81% for the first, 0.986% for the second.

In the case of `COc1ccc(N(C(C)C(=O)Nc2cccnc2)S(C)(=O)=O)cc1` (centres unmarked), the “% Inhibition @ 10 uM” value is reported as -7.56% and -0.661%.

Reference: publication PMC6919601, “Identification of Plasmodium dipeptidyl aminopeptidase allosteric inhibitors by high throughput screening” (PLoS ONE, 2019)
